Test results from PubChem BioAssay AID720542 (National Center for Advancing Translational Sciences (NCATS), 2013).
The campaign covered roughly 360,000 compounds. About 740 (0.21%) were called active. The inconclusive results got no clear call from the source; some entries with a clear call stand among them for comparison. The call rests on the fitted dose curve; in most records, active means well fitted inhibition curve with a large enough effect; inconclusive means small, poorly fitted or top-dose-only effect; inactive means no such curve, though single readings can be large or run the other way. No potency is given beside an inconclusive call; the fits are too rough.

System: Plasmodium falciparum AMA1 (3D7) - RON2 peptide interaction
Assay: qHTS for Inhibitors of AMA1-RON; Towards Development of Antimalarial Drug Lead: Primary Screen; further: nearly all actives have a fitted effect of over 45% in size;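 on activity change, negative = inhibition: 0% = vehicle wells and -100% = peptide control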
Conditions: AlphaScreen AMA1-biotinylated RON2 peptide binding; activity change, negative = inhibition: at 58.2 µM (top of the series) unless noted
How it was run: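 AMA1 (3D7) with his tag at 25 nM final met compounds first, then biotinylated RON2 peptide at 25 nM; detection used donor plus acceptor beads, 10 µg/mL apiece, read by AlphaScreen after 30 min at room temperature.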
Potency means the concentration at half of the fitted maximal effect; tags describe the fitted curve by direction and shape.

Row | Structure (SMILES) | Potency | activity change, negative = inhibition
1 | N#Cc1c(NC(=O)CSc2ncc(-c3ccccc3)n2CC2CCCO2)sc2c1CCCC2 (stereo unspecified) | inconclusive [inhibitor, single point] | 
2 | COc1ccccc1NC(=O)N1CCc2c([nH]c3ccccc23)C1C(F)(F)F (stereo unspecified) | inconclusive [inhibitor, partial curve] | 
3 | CN(CC(=O)Nc1ccc(N2CCOCC2)cc1)C(=O)CCCOc1ccc(Cl)cc1Cl | inconclusive [inhibitor, partial curve] | 
4 | Cc1ccc(N(C(=O)c2csnn2)C(C(=O)NC(C)(C)C)c2ccncc2)cc1 (stereo unspecified) | inactive | 
5 | Fc1ccc(OCc2nnc(SCCN3CCOCC3)o2)cc1 | inconclusive [inhibitor, partial curve] | 
6 | O=C(Nc1cccnc1)c1sc2cccc(F)c2c1Cl | inactive | 
7 | CC(=O)OCCN(CCCn1c(-c2ccncc2)nc2ccccc21)c1nc(CN2CCCCC2)cs1 | inactive | 
8 | CCC(=O)N(C)C[C@@H]1Oc2ncc(Br)cc2C(=O)N([C@H](C)CO)C[C@H]1C | inactive | 
9 | COc1ccc2sc3cccc(NCCN(C)C)c3c(=O)c2c1 | inconclusive [inhibitor, partial curve] | 
10 | Cc1ccccc1OCCNc1ccc(C(F)(F)F)cc1[N+](=O)[O-] | inconclusive [inhibitor, partial curve, poor fit] | 
11 | COc1ccc(-c2c(-c3ccc(OC)c(F)c3)c3ccccc3n2C)cc1 | inconclusive [inhibitor, partial curve] | 
12 | O=C(O)CNC(=O)c1ccc(OC(F)F)cc1 | inactive | 
13 | Cn1c(CC(=O)Nc2ccccc2F)nnc1SCC(=O)N1CCOCC1 | inactive | 
14 | COc1cccc(C(=O)NCC(c2ccc3c(c2)OCO3)N2CCN(c3ccc(F)cc3)CC2)c1 (stereo unspecified) | inconclusive [inhibitor, partial curve] | 
15 | CC(=O)n1cc([C@H]2C=C(C(=O)N3CCN(Cc4ccccc4)CC3)O[C@@H](OCc3ccc(CO)cc3)C2)c2ccccc21 | inconclusive [inhibitor, single point] | 
16 | OC(COCc1cccs1)CN1CCN(c2cccc(Cl)c2)CC1 (stereo unspecified) | inconclusive [inhibitor, partial curve] | 
17 | COc1cc(NC(=O)c2ccc(Cl)cc2)c(OC)cc1NC(=O)CN1CCCCC1 | inconclusive [inhibitor, single point] | 
18 | CCCCCC1NC(=O)NC1CCCCCC(=O)O (stereo unspecified) | inconclusive [inhibitor, single point] | 
19 | O=C(O)Cn1nnnc1SCC(=O)Nc1ccc(F)cc1F | inconclusive [inhibitor, full curve, poor fit] | 
20 | CCN(C)c1cc2c(c3c1ccn3C)C1CCC2C1 (stereo unspecified) | inconclusive [inhibitor, single point] | 
21 | O=C(CSc1nc2c(c(=O)n1-c1ccc(F)cc1)SCC2)NCC1CCCO1 (stereo unspecified) | inconclusive [inhibitor, full curve, poor fit] | 
22 | O=C(CN1c2cccc3cccc(c23)S1(=O)=O)NCCc1ccccc1 |  | inactive: -12% [at 11.6 µM]
23 | O=C(NCC[C@@H]1CC[C@@H](NS(=O)(=O)Cc2ccccc2)[C@@H](CO)O1)C1CC1 | inactive | 
24 | CN=c1scc(-c2ccc(OC)cc2)n1/N=C(\C)c1cccnc1 | inconclusive [inhibitor, single point] | 

Row | Structure (SMILES) | Potency | activity change, negative = inhibition
25 | COc1cccc(-c2nc(N3CC(C)CC(C)C3)c3ccccc3n2)c1O (stereo unspecified) | inconclusive [inhibitor, partial curve] | 
26 | CN(C)c1ccc(C(CNS(=O)(=O)c2ccc3ccccc3c2)c2c[nH]c3ccccc23)cc1 (stereo unspecified) | inconclusive [inhibitor, partial curve] | 
27 | Cc1c(C)c2ccc(OCC(=O)Nc3nccs3)cc2oc1=O | inconclusive [inhibitor, single point] | 
28 | O=C(c1cc(-c2ccccc2)on1)N1CCc2ccccc2C1 | inconclusive [inhibitor, partial curve] | 
29 | CC1Cc2ccccc2N1Cc1ccc([N+](=O)[O-])cc1 (stereo unspecified) | active: 11.2 µM | 
30 | Cc1cc(=O)oc2cc3c(cc12)OCCN3 | inactive | 
31 | C=CCNc1nc(-c2ccc3c(c2)OCCO3)cs1 | inactive | 
32 | COc1ccccc1N1CCN(CC(O)COc2ccc3c(c2)CCC3)CC1 (stereo unspecified) | inconclusive [inhibitor, full curve, poor fit] | 
33 | COc1cc2c3c(c1)C(C)CC(C)(C)N3C(=O)C2=O (stereo unspecified) | inconclusive [inhibitor, partial curve] | 
34 | CCOC(=O)c1cnc(-c2ccccc2)nc1-c1ccccc1 | inactive | 
35 | O=c1ccc(-c2nc3ccccc3n2Cc2ccccc2Cl)c[nH]1 | inactive | 
36 | C[C@H]1c2cccc(O)c2C(=O)C2C(=O)C3(O)C(=O)C(C(N)=O)C(=O)[C@@H](N(C)C)[C@@H]3[C@@H](O)[C@@H]21 (stereo partly specified) | inconclusive [inhibitor, full curve] | 
37 | CC(CCc1ccccc1)NC(=O)CN1CCSc2ccccc21 (stereo unspecified) | inconclusive [inhibitor, partial curve] | 
38 | CN(C)c1ccc(N=Nc2cccc(F)c2)cc1 | active: 8.91 µM | 
39 | CCCCNC1=CC(=O)C(NCCCC)=CC1=O | inconclusive [inhibitor, single point] | 
40 | c1ccc(Cn2c(CN3CCCC3)nc3ccccc32)cc1 | inconclusive [inhibitor, single point] | 
41 | CC(=O)Nc1ccc(S(=O)(=O)Nc2ccc(N3CCCCC3)cc2)cc1 | inconclusive [inhibitor, partial curve] | 
42 | CCOc1ccc2c(c1)c(N=Nc1cccc(C(=O)O)c1)c(O)n2C | inactive | 
43 | CN=c1scc(C)n1/N=C/c1ccc(O)c(O)c1O | inconclusive [inhibitor, partial curve] | 
44 | C=CCC1(NCc2ccco2)CCN(CC)CC1 | inconclusive [inhibitor, single point] | 
45 | O=C(Cn1cc(SCc2cccc(Cl)c2)c2ccccc21)N1CCOCC1 | inactive | 
46 | O=C(NC1(C(F)(F)F)NC(=O)N(c2ccccc2)C1=O)c1cccs1 (stereo unspecified) | inconclusive [inhibitor, partial curve, poor fit] | 
47 | COc1ccc(CCNc2oc(-c3ccc(OC)c(OC)c3)nc2C#N)cc1 | inconclusive [inhibitor, single point] | 
48 | CC(=O)c1cnc(N2CCCCC2)nc1C | inactive | 

Row | Structure (SMILES) | Potency | activity change, negative = inhibition
49 | CC1=CC(C)(C)Nc2ccc(OC(=O)C(Cc3ccccc3)N3C(=O)c4ccccc4C3=O)cc21 (stereo unspecified) | inconclusive [inhibitor, single point] | 
50 | CC(=O)Nc1cc(-c2ccc(N3CCN(C)CC3)cc2)cn2c(-c3ccc(F)cc3)cnc12 | inconclusive [inhibitor, partial curve] | 
51 | COc1cc(OC)c(NC(=O)CCCn2c(=O)oc3ccccc32)cc1Cl | inactive | 
52 | CN(C)C(=O)Oc1ccc2c(=O)c(Oc3ccccc3Br)coc2c1 | inconclusive [inhibitor, partial curve] | 
53 | CC1=C/C(=N\Nc2ccccc2[N+](=O)[O-])CC(C)(C)C1 | active: 3.55 µM | 
54 | Nc1ccc(Cl)c[n+]1Cc1cccc2cccnc12 | inactive | 
55 | FC(F)(F)c1ccccc1/C=N/N1CCN(Cc2ccccc2)CC1 | inconclusive [inhibitor, partial curve] | 
56 | CCN(CC)c1ccc(CNCc2cccs2)cc1 | inconclusive [inhibitor, partial curve, poor fit] | 
57 | O=C(Nc1c(F)cccc1F)C(c1ccccc1)c1ccccc1 | inconclusive [inhibitor, full curve, poor fit] | 
58 | CCCn1c(O)c(N=NC(=O)CNC(=O)/C=C/c2ccc(OC)cc2)c2ccccc21 | inconclusive [inhibitor, partial curve] | 
59 | O=C(CSC1=NCCS1)Nc1ccccc1F | inactive | 
60 | COc1ccc(/C=C2\SC(=S)N(CCCC(=O)N3CCN(C)CC3)C2=O)cc1 | inconclusive [inhibitor, single point] | 
61 | O=C1/C(=C/c2ccc(O)c(O)c2)SC(=S)N1Nc1ccccc1 | inconclusive [inhibitor, partial curve] | 
62 | CCOC(=O)CN1C(=O)S/C(=C/C=C/c2ccc(N(C)C)cc2)C1=O | inconclusive [inhibitor, full curve] | 
63 | CCOc1ccc(C=NNc2ccc(S(=O)(=O)Nc3ccccc3C(=O)O)cc2[N+](=O)[O-])cc1 | inconclusive [inhibitor, single point] | 
64 | Clc1cccc(-c2ccc(C=Nc3ccc(N4CCOCC4)cc3)o2)c1 | inconclusive [inhibitor, single point] | 
65 | CCCN(CCC)S(=O)(=O)c1ccc(C(=O)N2CCN(C)CC2)cc1 | inactive | 
66 | O=C(NNC(=S)NC1CCCCC1)c1sc2ccccc2c1Cl | inactive | 
67 | COc1cc(NC(=O)CN2c3ccccc3CC2C)cc(OC)c1OC (stereo unspecified) |  | inconclusive: -34% [inhibitor]
68 | CCn1c(=O)[nH]c2cc(C(=O)N3CCN(c4ccccc4)CC3)ccc2c1=O | inactive | 
69 | Cc1cc(NC(=O)CSc2cn(CCNC(=O)c3ccccc3)c3ccccc23)no1 | inconclusive [inhibitor, partial curve] | 
70 | COc1ccc(C(CCN2CCOCC2)c2c(OC)cc(OC)c3ccc(=O)oc23)cc1 (stereo unspecified) | inactive | 
71 | N#CCc1ccc(NC(=O)Nc2cccc(Cl)c2)cc1 | inactive | 
